In US8633212B2, “Inhibitors of beta-secretase” (Vitae Pharmaceuticals, Inc., priority 2009, dated 2014):
Read-outs that look alike come from different tables or passages of the source.

Experiments:
[1] = biological target: T1, ectodomain of BACE (aa 1-454) fused to a myc-his tag, secreted from HEK293/BACEect. cells (Homo sapiens (Human), UniProt P56817); assay: biochemical
[2] = biological target: T1, ectodomain of BACE (aa 1-454) fused to a myc-his tag, secreted from HEK293/BACEect. cells; conditions: footnote b: protocols described in Example 435

Structure (SMILES)	IC50 [2]	IC50 [1]
COC1CCC2(CC1)Cc1ccc(-c3cnn(C)c(=O)c3)cc1C21N=C(N)N(C)C1=O (centres unmarked) [Compound 202]		32.3 nM
CN1C(=O)C2(N=C1N)c1cc(C#CC3CC3)ccc1CC21CCc2ccccc2CC1 (centres unmarked) [Compound 402]		72.5 nM
COC1CCC2(CC1)Cc1ccc(Br)cc1C21N=C(N)N(C2CCOCC2)C1=O (centres unmarked) [Compound 432]		80.5 nM
CN1C(=O)C2(N=C1N)c1ccccc1OC21CCc2ccccc2CC1 (centres unmarked) [Compound 423]		186 nM
COCCOc1ccc2c(c1)C1(N=C(N)N(C)C1=O)C1(CCc3ccccc3CC1)C2 (centres unmarked) [Compound 405]		11.4 nM
COC1CCC2(CC1)Cc1ccc(Br)cc1C21N=C(N)N(CC2CCCO2)C1=O (centres unmarked) [Compound 331]		30.9 nM
COC1CCC2(CC1)Cc1ccc(C#N)cc1C21N=C(N)N(C(C)C)C1=O (centres unmarked) [Compound 158]		49.3 nM
CC(C)N1C(=O)C2(N=C1N)c1cc(OCC(F)(F)F)ccc1CC21CCc2ccccc2CC1 (centres unmarked) [Compound 413]		48.3 nM
COC1CCC2(CC1)Cc1ccc(Br)cc1C21N=C(N)N(C(C)(C)C)C1=O (centres unmarked) [Compound 429]		1670 nM
COC1CCC2(CC1)Cc1ccc(CCC3CC3)cc1C21N=C(N)N(CC2CCC2)C1=O (centres unmarked) [Compound 347]		20.4 nM
COC1CCC2(CC1)Oc1ccc(OCC(F)(F)F)cc1C21N=C(N)N(C)C1=O (centres unmarked) [Compound 133]		38.5 nM
CCN1C(=O)C2(N=C1N)c1cc(OCC3CC3)ccc1CC21CCC(OC)CC1 (centres unmarked) [Compound 137]		7.8 nM
CN1C(=O)C2(N=C1N)c1cc(OCC3CC3)ccc1CC21CCc2ccccc2CC1 (centres unmarked) [Compound 408]		9.7 nM
CCC(CC)CN1C(=O)C2(N=C1N)c1cc(CCC3CC3)ccc1CC21CCC(OC)CC1 (centres unmarked) [Compound 349]		16.3 nM
COC1CCC2(CC1)Cc1ccc(-c3nc(Br)cs3)cc1C21N=C(N)N(C(C)C)C1=O (centres unmarked) [Compound 170]		89.7 nM
CCCO[C@H]1CC[C@]2(CC1)Cc1ccc(-c3cccc(OC)c3)cc1C21N=C(N)N(C)O1 (some centres unmarked) [Compound 596]	455 nM	

Structure (SMILES)	IC50 [2]	IC50 [1]
CC(=O)N1CCC2(CC1)Oc1ccc(Br)cc1C21N=C(N)N(C)C1=O (centres unmarked) [Compound 447]	13500 nM	
COC1CCC2(CC1)Cc1ccc(CCC3CC3)cc1C21N=C(N)N([C@@H](C)c2ccccc2)C1=O (single isomer, unassigned) [Compound 360]	97.8 nM	
CCCSc1ccc2c(c1)C1(N=C(N)N(CCOC)C1=O)C1(CCC(OC)CC1)C2 (centres unmarked) [Compound 533]	8.9 nM	
CO[C@H]1CC[C@]2(CC1)Cc1ccc(C#N)cc1C21N=C(N)N(C)O1 (some centres unmarked) [Compound 547]	157 nM	
CN1C(=O)C2(N=C1N)c1cc(C#CC3CC3)ccc1CC21CCC(OC(=O)[C@@H](N)Cc2ccc(O)cc2)CC1 (some centres unmarked) [Compound 258]	640 nM	
COCCOc1ccc2c(c1)[C@@]1(N=C(N)N(C)C1=O)C1(CCc3ccccc3CC1)C2 [Compound 406]	6.3 nM	
COC1CCC2(CC1)Cc1ccc(OC(F)F)cc1C21N=C(N)N(C)C1=O (centres unmarked) [Compound 247]	55.4 nM	
CN1C(=O)C2(N=C1N)c1cc(Br)ccc1CC21CCc2ccccc2CC1 (centres unmarked) [Compound 56]	204 nM	
CO[C@H]1CC[C@]2(CC1)Cc1ccc(Br)cc1C21CC(C)(C)SC(N)=N1 (some centres unmarked) [Compound 539]	2440 nM	
COCCCO[C@H]1CC[C@]2(CC1)Cc1ccc(-c3cccc(OC)c3)cc1C21N=C(N)N(C)O1 (some centres unmarked) [Compound 601]	293 nM	
CO[C@H]1CC[C@]2(CC1)Cc1ccc(Oc3ccc(Cl)cc3)cc1C21N=C(N)N(C)O1 (some centres unmarked) [Compound 595]	105 nM	
CO[C@H]1CC[C@]2(CC1)Cc1ccc(C#CC3CC3)cc1C21N=C(N)N(Cc2ccnnc2)C1=O (some centres unmarked) [Compound 558]	4080 nM	
CC(=O)N1CCC2(CC1)Oc1ccc(-c3cccc(C#N)c3)cc1C21N=C(N)N(C)C1=O (centres unmarked) [Compound 448]	1950 nM	
CN1C(=O)C2(N=C1N)c1cc(C#CC3CC3)ccc1O[C@]21CC[C@@H](OC(F)F)CC1 (some centres unmarked) [Compound 583]	268 nM	
COC1CCC2(CC1)Cc1ccc(C#CC3CC3)cc1[C@@]21N=C(N)N(C[C@H]2CCCO2)C1=O (some centres unmarked) [Compound 337]	262 nM	

Second part, led by results:

IC50 [2]	Structure (SMILES)	IC50 [1]
4.5 nM	CO[C@H]1CC[C@]2(CC1)Cc1ccc(C#CC3CC3)cc1C21N=C(N)N(CC(=O)OC(C)C)C1=O (some centres unmarked) [Compound 543]	
19400 nM	CO[C@H]1CC[C@]2(CC1)Cc1ccc(Br)cc1[C@@]21N=C(N)N([C@H](C)CO)C1=O [Compound 588]	
149 nM	CO[C@H]1CC[C@]2(CC1)Cc1ccc(C(C)C)cc1C21N=C(N)N(C(C)C)C1=O (some centres unmarked) [Compound 499]	
99.1 nM	CCCN1C(=O)C2(N=C1N)c1cc(C#N)ccc1CC21CCC(OC)CC1 (centres unmarked) [Compound 485]	
128 nM	CO[C@H]1CC[C@]2(CC1)Cc1ccc(-c3ncco3)cc1C21N=C(N)N(CCF)C1=O (some centres unmarked) [Compound 529]	
7.2 nM	COCCOc1ccc2c(c1)[C@]1(N=C(N)N(C)C1=O)C1(CCC(OC)CC1)C2 (some centres unmarked) [Compound 484]	
115 nM	CO[C@H]1CC[C@]2(CC1)Cc1ccc(-c3nccs3)cc1C21N=C(N)N(CCF)C1=O (some centres unmarked) [Compound 530]	
11.6 nM	COC1CCC2(CC1)Cc1ccc(CCC(F)(F)F)cc1C21N=C(N)N(C)C1=O (centres unmarked) [Compound 256]	
1070 nM	C=C(c1ccc2c(c1)C1(N=C(N)N(C)C1=O)C1(CCC(OC)CC1)C2)C(F)(F)F (centres unmarked) [Compound 260]	
618 nM	COC1CCC2(CC1)Cc1cc(F)c(C#CC3CC3)cc1C21N=C(N)N(C)C1=O (centres unmarked) [Compound 255]	
6 nM	CO[C@H]1CC[C@]2(CC1)Cc1ccc(Oc3cc(Cl)cc(Cl)c3)cc1C21N=C(N)N(C)C1=O (some centres unmarked) [Compound 593]	
21 nM	CO[C@H]1CC[C@]2(CC1)Cc1ccc(C#CC3CC3)cc1C21N=C(N)N(CCC(=O)OC(C)C)C1=O (some centres unmarked) [Compound 544]	
34.3 nM	CO[C@H]1CC[C@]2(CC1)Cc1ccc(OCC3CCC3)cc1C21N=C(N)N(C(C)C)C1=O (some centres unmarked) [Compound 506]	
128 nM	CO[C@H]1CC[C@]2(CC1)Cc1ccc(C3CCCC3)cc1C21N=C(N)N(C(C)C)C1=O (some centres unmarked) [Compound 507]	
134 nM	CO[C@H]1CC[C@]2(CC1)Cc1ccc(OCC3CCC3)cc1C21N=C(N)N(CC(F)(F)F)C1=O (some centres unmarked) [Compound 566]	
171 nM	CO[C@H]1CC[C@]2(CC1)Cc1ccc(OC(C)C)cc1C21N=C(N)N(C)O1 (some centres unmarked) [Compound 505]	
199 nM	CCc1ccc2c(c1)C1(N=C(N)N(C(C)C)C1=O)[C@]1(CC[C@H](OC)CC1)C2 (some centres unmarked) [Compound 500]	
145 nM	COc1ccc2c(c1)C1(N=C(N)N(C)C1=O)C1(CCC(OC)CC1)C2 (centres unmarked) [Compound 233]	
25 nM	CO[C@H]1CC[C@]2(CC1)Cc1ccc(OCC(F)(F)F)cc1C21N=C(N)N(CCF)C1=O (some centres unmarked) [Compound 552]	
8 nM	CN1C(=O)C2(N=C1N)c1cc(OCC(F)(F)F)ccc1C[C@]21CC[C@@H](OC(F)F)CC1 (some centres unmarked) [Compound 557]	
10 nM	CO[C@H]1CC[C@]2(CC1)Cc1ccc(CCC(C)C)cc1C21N=C(N)N(C)C1=O (some centres unmarked) [Compound 515]	
274 nM	CCC(C)N1C(=O)C2(N=C1N)c1cc(C#N)ccc1C[C@]21CC[C@@H](OC)CC1 (some centres unmarked) [Compound 481]	
250 nM	CO[C@H]1CC[C@]2(CC1)Cc1ccc(-c3cc(C#N)cs3)cc1C21N=C(N)N(C(C)C)C1=O (some centres unmarked) [Compound 567]	
78.2 nM	CO[C@H]1CC[C@]2(CC1)Cc1ccc(CC(C)C)cc1C21N=C(N)N(C(C)C)C1=O (some centres unmarked) [Compound 491]	
3.5 nM	COC1CCC2(CC1)Cc1ccc(OCC3CC3)cc1C21N=C(N)N(C)C1=O (centres unmarked) [Compound 244]	
